In paper PMC6451091 one finds binding signal data, which are given here for 21 sequences.

Some of the results follow. For part of these data: At the low end of the ranking, values are background and their order means little. For part of these data: Measured with an extract: partners may take part in the binding.

Holding throughout (settings): 20 mM HEPES pH 7.9, 100 mM NaCl, 1 mM DTT, 0.2 mg/mL BSA, 0.02% Triton X-100, 2% milk, 0.4 mg/mL salmon testes DNA; 1 h; temperature not stated; high values mean tight binding; double strand, one strand shown; sequences stand for … in GCCTAGCAC…GTGCTAGGTCTTGATTCGCTTGACGCTGCTG
For assay [1], the target named is PU.1 (IVT) (UniProt P17947). Description: protein-binding microarray (PBM).
Assay [2] concerns the target PU.1 (endogenous, THP-1 nuclear extract) (UniProt P17947). Put plainly: nuclear extract protein-binding microarray (nextPBM).
The target of assay [3] is T1, FLI1 (endogenous, THP-1 nuclear extract) (UniProt Q01543).
T1 sequence: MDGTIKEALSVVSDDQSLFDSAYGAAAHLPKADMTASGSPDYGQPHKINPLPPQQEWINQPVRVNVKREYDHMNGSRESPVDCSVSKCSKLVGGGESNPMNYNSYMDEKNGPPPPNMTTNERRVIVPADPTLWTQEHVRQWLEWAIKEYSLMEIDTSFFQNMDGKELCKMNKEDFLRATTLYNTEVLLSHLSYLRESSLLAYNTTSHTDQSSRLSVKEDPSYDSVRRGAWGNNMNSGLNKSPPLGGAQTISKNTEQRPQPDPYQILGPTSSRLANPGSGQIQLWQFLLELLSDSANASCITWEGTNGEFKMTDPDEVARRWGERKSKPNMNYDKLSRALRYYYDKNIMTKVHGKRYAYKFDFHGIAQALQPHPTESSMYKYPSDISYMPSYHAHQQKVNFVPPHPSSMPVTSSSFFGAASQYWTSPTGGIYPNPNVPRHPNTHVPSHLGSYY
The description is as above.

For the sequence TGGTTGAGGAAGTGTTGGAG, the binding signal was determined as 3.73 z-score in assay [1], 3.6 z-score in assay [2] and 2.24 z-score in assay [3].

As for CGAGAGGGGAAGTGCTAAAC, the binding signal worked out at 4.37 z-score in assay [1], 4.15 z-score in assay [2] and 2.28 z-score in assay [3].

For the sequence AAAAAATGGAACTGGCTAGA, the values for the binding signal in assay [1], in assay [2] and in assay [3] were 1.38 z-score, 1.15 z-score and 0.0495 z-score, respectively.

With TGAAAGGGGAAGTGCTACAC, the binding signal in assay [1] was 6.96 z-score; in assay [2] it was 6.91 z-score; in assay [3] it was 3.38 z-score.

For CCTTAGGGGAAGTGTGAAGT, the binding signal was determined as 3.49 z-score in assay [1], 3.48 z-score in assay [2] and 1.71 z-score in assay [3].

For GTGGAGGGGAAGTGGCCTCT, the binding signal in assay [1] was determined as 3.63 z-score; in assay [2], 3.81 z-score; in assay [3], 2.32 z-score.

Regarding AGAAGGAGGAAGTGAAGGCA, the binding signal was 4.97 z-score in assay [1], 6 z-score in assay [2] and 3.12 z-score in assay [3].

On to CTGAAGAGGAACTGAACTTA, for which the binding signal in assay [1] came out at 3.42 z-score; in assay [2], 3.7 z-score; in assay [3] it was 1.54 z-score.

In the case of GATAAGAGGAAGTCCTATGT, the binding signal turned out to be 5.89 z-score in assay [1], 6.4 z-score in assay [2] and 3.07 z-score in assay [3].

Turning to GAAAAGGGGAAGTGTGGACA, the binding signal in assay [1] came to 7.67 z-score; in assay [2], 7.1 z-score; in assay [3], 3.38 z-score.

Consider CGAAAGGGGAAGTGCTCAAC, for which the binding signal in assay [1] worked out at 7 z-score; in assay [2], 7.05 z-score; in assay [3], 3.44 z-score.

In the case of CGAAAGGGGAAGTGCTAAGC, the results for the binding signal in assay [1], in assay [2] and in assay [3] were 6.82 z-score, 7.02 z-score and 3.01 z-score, respectively.

Consider AAGAAGAGGAAGTGGTTTGT, for which the binding signal came out at 7.35 z-score in assay [1], 7.06 z-score in assay [2] and 3.7 z-score in assay [3].

For ACAAAAAGGAACTGTGCCCT, the results for the binding signal in assay [1], in assay [2] and in assay [3] were 1.84 z-score, 1.68 z-score and 1.25 z-score, respectively.

CCGATGGGGAAGTGGTGAGC: the values for the binding signal in assay [1], in assay [2] and in assay [3] were 4.44 z-score, 4.93 z-score and 1.34 z-score, respectively.

For the sequence AAAAAAAGGAAGTGGTAGCA, the binding signal was 6.75 z-score in assay [1], 6.46 z-score in assay [2] and 3.17 z-score in assay [3].

For the sequence CAGAAGGGGAAGTGAAAACA, the binding signal worked out at 5.54 z-score in assay [1], 6.54 z-score in assay [2] and 2.67 z-score in assay [3].

For the sequence CAAAAAGGGAAGTGGATGCA, the binding signal in assay [1] amounted to 6.45 z-score; in assay [2], 6.6 z-score; in assay [3], 3.22 z-score.

In the case of CAAAACAGGAAGTCCCATAG, the binding signal in assay [1] is 6.93 z-score; in assay [2], 7.01 z-score; in assay [3], 4.83 z-score.

Take CAAAAGGGGAAGTGGATGCT: the binding signal was 7.79 z-score in assay [1], 7.18 z-score in assay [2] and 3.6 z-score in assay [3].

On to TGGTTGGGGAAGTGGCCACT, for which the binding signal in assay [1] was 2.83 z-score; in assay [2], 3.17 z-score; in assay [3], 1.07 z-score.
